Measurements published in PubChem BioAssay AID1508623 (National Center for Advancing Translational Sciences (NCATS), 2021).
Screen size: about 48,000 compounds; about 450 (0.94%) were called active. Another 19% or so got no clear call; they are omitted. Calls follow the shape of the dose curve; as a rule, active = well fitted inhibition curve with a large enough effect; inconclusive = small, poorly fitted or top-dose-only effect; inactive = no such curve, though single readings can be large or run the other way. Some of the results follow.

Test: Primary qHTS for Identification of Small Molecule Inhibitors of Huntingtin Promoter Activity; also: nearly all actives have a fitted effect of over 50% in size
Settings: HEK293 HTT promoter firefly luciferase reporter (activity 0% = vehicle and -100% = no light), 24 h; series mostly up to 57.5 µM; activity change, negative = inhibition: at the top concentration
In short: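 Firefly luciferase readout (Dual-Glo, 10 min RT) after 24 h, 37 °C compound exposure (final up to 57.5 uM) of HEK293 reporter cells cultured 24 h beforehand; PTC124 at 50 uM final as control inhibitor; activity scaled vehicle 0%, zero RLU -100%.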

Row | SMILES | activity change, negative = inhibition
1 | CN(C)c1ccc(CNC(=O)c2ccc3nc(CCc4ccccc4)oc3c2)cc1 | inactive: 4.57%
2 | CCOC(=O)CSc1nc2cc3c(cc2c(=O)n1CCCCCC(=O)NCc1ccc(OC)cc1)OCO3 | inactive: -15.7%
3 | COc1ccccc1NC(=O)Cn1c(=O)n(-c2ccc(C)cc2)c(=O)c2c1cnn2C | inactive: -6.64%
4 | CCOc1ccc(NC(=O)c2oc3ccccc3c2NC(=O)c2cc3ccccc3o2)cc1 | inactive: 20.7%
5 | COc1ccc(-n2nc(C(=O)Nc3cccc(Cl)c3)c3c4ccccc4n(C)c3c2=O)cc1Cl | inactive: -2.4%
6 | CC(C)(C)c1ccc(-c2nnc(-c3ccccc3NC(=O)c3ccc(F)cc3F)o2)cc1 | inactive: -13.2%
7 | O=C(CSc1oc(-c2ccco2)nc1S(=O)(=O)c1ccc(Cl)cc1)Nc1ccc(F)cc1 | inactive: -17.8%
8 | COc1ccc(-c2nc3ccccc3n3c(-c4ccccc4)c4c(=O)n(C)c(=O)n(C)c4c23)cc1 | inactive: -6.95% [at 11.5 µM]
9 | Cc1onc(-c2ccccc2Cl)c1C(=O)N[C@@H]1C(=O)N2[C@@H]1SC(C)(C)[C@@H]2C(=O)O | inactive
10 | COc1ccc2c(c1)c1c(c(=O)n(Cc3ccccc3)c(=O)n1Cc1ccc(C)cc1)n2C | inactive: -15.4%
11 | Cc1ccc(-n2ncc(C(=O)NCCCN3CCc4ccccc4C3)c2C2CCN(C(=O)OC(C)(C)C)CC2)cc1C | inactive: -21.9%
12 | CC(CNC(=O)CN1C(=O)COc2ccc(S(=O)(=O)N3CCCCC3)cc21)c1ccccc1 (stereo unspecified) | inactive: 0.241%
13 | CC1CN(C(=O)Nc2ccc(C(=O)NCCc3ccccc3Cl)cc2)c2ccccc2S1 (stereo unspecified) | inactive: -14.2%
14 | COc1ccccc1-c1cccc(-c2c(O)c3cc(C#N)c(Cl)cc3[nH]c2=O)c1 | inactive: -15.2% [at 116 µM]
15 | COc1ccc(-c2cc(C(F)(F)F)n3nc(C(=O)Nc4sc5c(c4C#N)CCC(C)C5)cc3n2)cc1OC (stereo unspecified) | inactive: -8.52% [at 11.5 µM]
16 | CCOC(=O)C1CCN(C(=O)c2cc3ccc4ccc(C)[nH]c4c3n2)CC1 | inactive: 40.9%
17 | CCC(C)NC(=O)c1[nH]c2cc(OC)ccc2c1Sc1ccc(C)cc1 (stereo unspecified) | inactive: -30.5%
18 | CCOC(=O)c1cccc(NC(=O)c2cnn(-c3ccccc3)c2-n2cccc2)c1 | inactive: -24.6%
19 | O=C(CSCc1cc(=O)c2ccccc2[nH]1)Nc1cccc(C(F)(F)F)c1 | inactive: -17.7%
20 | CCC1CN(C(=O)Nc2ccccc2C(F)(F)F)c2ccccc2S1 (stereo unspecified) | inactive: 5.31%
21 | CCC1CN(C(=O)N2CCC(C(=O)N(C)Cc3ccccc3)CC2)c2ccccc2O1 (stereo unspecified) | inactive: -20.9%
22 | Cc1ccc(CNC(=O)c2cc(S(=O)(=O)N3CCCCC3)cn2C)cc1 | inactive: -33%
23 | COC(=O)c1scc(-c2ccc(C)cc2)c1S(=O)(=O)Nc1c(C)cc(C)cc1C | inactive: -6.94%

Row | SMILES | activity change, negative = inhibition
24 | CCS(=O)(=O)c1ncc(N(Cc2cccc(F)c2)Cc2ccco2)c(C(=O)Nc2ccccc2Cl)n1 | inactive: 12%
25 | CCOc1ccccc1NC(=O)CCNS(=O)(=O)c1ccc2c(c1)CCN2C(=O)C1CC1 | inactive: -8.35%
26 | Cc1ccc(/C=C/c2onc(C)c2S(=O)(=O)N2CCC(C(=O)NCc3ccc(N(C)C)cc3)CC2)cc1 | inactive: -18.9%
27 | COc1ccc(NC(=O)CN(c2ccc(C)cc2)S(=O)(=O)c2cccs2)cc1OC | inactive: -1.86%
28 | Fc1ccccc1N1CCN(c2c3c(nc4nncn24)CCC3)CC1 | inactive: -34.1%
29 | CCC(Sc1nnc(-c2ccc(OC)cc2)c(-c2ccc(OC)cc2)n1)C(=O)Nc1cccc(OC)c1 (stereo unspecified) | inactive: -5.17%
30 | Cc1ccc(OCCCC(=O)Nc2sc3c(c2C(N)=O)CCCC3)cc1 | inactive: -14.8%
31 | CCCCN(C)C(=O)Cn1ncc2c([nH]c3ccc(C)cc32)c1=O | inactive: -1.8%
32 | COc1ccccc1NC(=O)c1sc2nc(-c3cc4ccccc4oc3=O)[nH]c(=O)c2c1C | inactive: 2.86%
33 | Cc1cc(C)cc(NC(=O)c2cccc(N3CCCS3(=O)=O)c2)c1 | inactive: 28.5%
34 | Cc1cccc(C(=O)Nc2nnc(SCc3cc(=O)n4cccc(C)c4n3)s2)c1 | inactive: 5.98%
35 | COc1ccc(C(=O)N/C(=C\c2cn(S(=O)(=O)N(C)C)c3ccccc23)C(=O)NCCCn2ccnc2)cc1 | inactive: -2.52%
36 | O=C(CSc1nnc(-c2ccccc2F)o1)N1CCc2ccccc21 | inactive: 7.75%
37 | Cc1cccc(NC(=O)c2c(NC(=O)c3ccco3)sc3c2CCC(C(C)(C)C)C3)c1 (stereo unspecified) | inactive: -10.7%
38 | C#Cc1cccc(Nc2ncnc3cc(OCCOC)c(OCCOC)cc23)c1 | inactive: -23.5%
39 | CN(Cc1ccccc1)C(=O)C1CCN(Cc2cc3ccccc3n2Cc2ccccc2)CC1 | inactive: -14.8%
40 | COc1cc(OC)cc(C(=O)Nc2ccc(S(=O)(=O)Nc3onc(C)c3C)cc2)c1 | inactive: -1.67%
41 | CCOC(=O)c1c(C)[nH]c(CCC(=O)Nc2cc(C)cc(C)c2)c1C | inactive: -25.1%
42 | Cc1ccc(-n2c3c(cc(-c4nc(-c5ccc(Cl)cc5)cs4)c2=O)C(=O)CC(C)(C)C3)cc1 | inactive: -9.02%
43 | COc1cccc(CNC(=O)CN2C(=O)CCn3nc(-c4cn(C)c5ccccc45)cc32)c1OC | inactive: -0.541%
44 | CCOC(=O)c1cccc(NC(=O)c2cc(-c3ccc(Cl)s3)nc3ccccc23)c1 | inactive: 0%
45 | O=C(NCCc1ccccc1)c1ccc(CSc2nc3ccncc3n2Cc2ccccc2)cc1 | inactive: 9.75%
46 | CCN(CC)CCCNC(=O)c1cn(C)c2ccc(S(=O)(=O)N3CCOCC3)cc2c1=O | inactive: -10.4% [at 11.5 µM]
